Results as given in the supplement of paper PMC10126150.
Sequences with one replicate were seen in a single cluster, so their values are uncertain.

System: ATP
Assay: switch fluorescence ratio, 500 uM ATP over buffer (Cy3 cluster intensity, sum of 5 cycles each) (fold (ratio)); higher = stronger signal-on switching upon ATP binding; sequences stand for … in TCGTCGGCAGCGTCAGATGTGTATAAGAGACAGTTTTTTTTTTTTTTTTTTTTTTTTT…TC
Conditions: aptamer strand: ATP DNA aptamer (quencher-CACCTGGGGGAGTATTGCGGAGGAAGG + anchor), 100 nM annealed; ATP concentration: 500 uM; one replicate
Outline: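 Cy3-labelled switching-strand clusters on a modified Illumina MiSeq flow-cell were annealed to 100 nM quencher-labelled ATP aptamer and imaged first in selection buffer, then after 15 min with 500 uM ATP at 22 °C. NaOH stripping and re-annealing separated each of five buffer/ATP cycles, and clusters outside 100-1000 RFU were excluded. The fluorescence ratio sums target-cycle Cy3 intensity over buffer-cycle Cy3 intensity per cluster and averages it per switch-domain sequence.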
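Also: ATP exposure 15 min at 22 °C before imaging.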

Sequence	switch fluorescence ratio
AAAAAAATCA	1.06
AAAAAAGCCG	1.12
AAAAAATTTC	1.04
AAAAAGCAC	1.08
AAAAAGTTGC	0.993
AAAAATAGGT	1
AAAACACGGG	1.04
AAAACCGATT	1.05
AAAACGACCT	1.5
AAAACGTGCG	0.976
AAAACGTGGA	0.99
AAAACTAGCC	0.99
AAAAGAATTA	1.03
AAAAGAGTC	0.987
AAAAGCAAAA	1.57
AAAAGCAATG	1.13
AAAAGCGCGA	1.08
AAAAGCTGGA	1.02
AAAAGGAATG	1.01
AAAAGGGAC	1.1
AAAAGGTTGC	0.961
AAAAGTATAT	1.02
AAAAGTCGAA	0.958
AAAAGTGAAT	0.962
AAAAGTGCC	1.07

Sequence	switch fluorescence ratio
AAAATATAAG	1
AAAATATTAC	1.05
AAAATATTAG	1.02
AAAATCAGTC	1.07
AAAATCCTCT	1.04
AAAATCGATG	1.02
AAAATCTCGA	0.96
AAAATGAACA	0.999
AAAATGATAA	1.01
AAAATTGGCG	1.06
AAACAAAATA	1.06
AAACACATAC	1.57
AAACAGGACC	0.996
AAACAGGAT	0.958
AAACAGGCTC	1.02
AAACATTTGT	1.01
AAACCGGCTA	1.01
AAACCTTTCA	2.37
AAACGAAGTC	1.02
AAACGAGCAG	1.04
AAACGCCCAA	1.16
AAACGGTCAG	0.994
AAACGTCTAT	0.985
AAACGTGGGT	0.937
AAACTAATGG	0.977

Sequence	switch fluorescence ratio
AAACTACGTG	1.02
AAACTCCAAG	1.01
AAACTCGAGT	1.02
AAACTCTGGA	1.11
AAACTGTGCT	0.996
AAACTTGGG	0.987
AAACTTGTAG	1
AAACTTGTAT	0.98
AAACTTTTCC	1.85
AAAGAAAATT	0.996
AAAGAAAGA	0.995
AAAGAACAGC	1
AAAGACCATG	1.09
AAAGACCCAT	1.01
AAAGACCCGG	1.02
AAAGACGGGG	1.06
AAAGACTCA	0.982
AAAGAGAGCA	0.955
AAAGAGAGCG	1.01
AAAGAGCCAC	1.05
AAAGAGCTAC	1.22
AAAGAGGTT	1.03
AAAGCACCGG	1.14
AAAGCACGGA	1.05
AAAGCAGAG	1.03

Sequence	switch fluorescence ratio
AAAGCAGTCT	1.14
AAAGCATGTT	0.971
AAAGCCAACT	0.958
AAAGCCCATC	0.975
AAAGCCCGTT	1.01
AAAGCGGATA	1.01
AAAGCGTTAT	0.983
AAAGCTTACA	1.15
AAAGCTTTTG	1
AAAGGCACTC	1.05
AAAGGCAGAT	1.01
AAAGGCAGCG	1.08
AAAGGCCTCA	1
AAAGGGAGC	1.02
AAAGGTACTC	0.983
AAAGGTGAGA	1.08
AAAGGTGTAC	1.11
AAAGGTTGTG	0.96
AAAGTACAGG	1.22
AAAGTACGGG	1.21
AAAGTATCAT	1
AAAGTCGTCT	1.19
AAAGTCTTAT	1
AAAGTGAACA	0.982
AAAGTGGATT	1

Sequence	switch fluorescence ratio
AAAGTGGGAA	1.06
AAAGTGTATG	0.958
AAAGTTCTGA	1.01
AAAGTTGTAA	0.986
AAATAAGCAT	0.992
AAATAAGGAC	0.994
AAATACGTCA	1.14
AAATAGACCT	1.64
AAATAGTTCT	1.14
AAATAGTTTA	1.01
AAATATAAG	0.997
AAATATATCG	1.02
AAATATGTGC	1
AAATCATCCG	1.14
AAATCATCTT	1.02
AAATCATTCG	0.993
AAATCCCGTT	1.12
AAATCCGACG	1.52
AAATCGATGA	1.02
AAATCGCGCT	1.01
AAATCGGTCG	0.948
AAATCGTCTC	1
AAATGAACGC	1.07
AAATGATTAA	0.984
AAATGATTCT	1.01

Sequence	switch fluorescence ratio
AAATGCTTTG	1.03
AAATGGCCCC	1.08
AAATGGGCCC	1
AAATGGGCT	1.04
AAATGGTCCG	0.997
AAATGTAGCG	0.995
AAATGTGGAC	1.04
AAATGTTTGA	0.984
AAATTAATGG	1.06
AAATTCACCT	1.29
AAATTGTTCG	0.986
AAATTTCAAA	1.02
AAATTTGAGC	0.975
AAATTTTCT	0.995
AACAAAAGT	1.03
AACAAAATAC	1.61
AACAAACGTG	1.13
AACAAATGTA	1.02
AACAAGGAA	0.975
AACAAGGAGA	0.975
AACAATAACA	1.05
AACAATAGAT	1.07
AACACAGGGA	1.07
AACACATGGT	1.01
AACACGCGCA	1.06

Sequence	switch fluorescence ratio
AACACGGAGT	0.994
AACACTGTCA	1.09
AACAGATGTT	0.969
AACAGCAAGG	1.07
AACAGGCGAG	0.95
AACAGGTAGG	1.02
AACAGTATTG	1.01
AACATAATGG	0.986
AACATACGGG	1.51
AACATCTGCT	1.04
AACATGGTAC	1.03
AACATGTGGG	0.99
AACATTTCGT	0.971
AACCAAGTCT	1.22
AACCACGTGT	1
AACCAGGACA	0.993
AACCCCACGG	1.46
AACCCCGATG	1.38
AACCCCGGGA	1.08
AACCCGATTG	1.04
AACCCGCCGG	1.02
AACCCGCCTG	0.974
AACCCGCGAT	5.65
AACCCGCTGT	1.11
AACCCGTATT	0.97

Sequence	switch fluorescence ratio
AACCCTTGGC	1
AACCGAAAAC	1.67
AACCGCCAAG	1.1
AACCGCGTTC	1.79
AACCGGATTG	0.976
AACCGGCATC	1.12
AACCGTAACA	1.09
AACCGTGTG	1.04
AACCTACTTT	1.15
AACCTGCGCG	1.15
AACCTGGGTG	1.81
AACCTGGTTG	1.06
AACCTGTGTT	0.958
AACCTTAGAG	1.02
AACCTTATCG	1.19
AACCTTCAGA	1.81
AACGACTTA	1.03
AACGATAGCG	1.08
AACGATGGGC	1.06
AACGCAACAA	1.97
AACGCCAAAG	1.04
AACGCGGATT	1
AACGCGGGCT	1.04
AACGCGTCA	0.994
AACGGAAACG	1.03
